Assay results as given in patent US12509431B2, “1,4-dihydroquinazolinone compounds and uses thereof” (Edgewise Therapeutics, Inc., priority 2022, dated 2025).
At least one compound was matched to its structure with a doubt left.

Assays:
Assay type in all cases: biochemical
[1] = molecular target: T1, Porcine Ventricle myofibrils (left ventricle of Yucatan minipigs) (Sus scrofa, UniProt P79293); assay: Myofibril ATPase assay (PK/LDH NADH-coupled), ventricle myofibrils
T1 construct: Myofibrils from porcine cardiac muscle was isolated from the left ventricle of Yucatan minipigs; tissue Exemplar Genetics; host or cells: left ventricle of Yucatan minipigs
Method: (§1) Myofibril ATPase assays are known in the art to be useful in evaluating small molecules for the treatment of HCM and other cardiac indications. Myosin ATPase activity is assessed by using a coupled reaction system, in which ADP generated by the myosin ATPase function is coupled to the disappearance of NADH through the pyruvate kinase/lactate dehydrogenase (PK-LDH) system. ATPase activity produces ADP, which is used as a substrate for PK to produce pyruvate and regenerate ATP. The pyruvate is then used as a substrate by LDH to oxidize NADH to NAD+. The rate of the reaction is monitored through the time-dependent disappearance of NADH using absorbance at 340 nm, which, when the couple system is in stoichiometric excess, is directly correlated to the ATPase activity of the myosin. Inhibition of ATPase activity by the assayed compounds is indicated by a reduced rate of NADH loss, relative to vehicle-treated controls, over the experimental time window. Rabbit Skeletal and Porcine Ventricle are the primary sources of myofibril material.
(§2) Materials: The following stock solutions and reagents were used in the Myofibril ATPase Assay:
(§3) Stock Solutions of pCa buffer. Combine PIPES, CaCl2), and EGTA solutions with water. Adjust pH to 7.0 and bring final volume to 100 mL.
(§4) Buffer A & Buffer B. Prepare buffers A and B according to the table below.
(§5) Myofibril ATPase Assay Procedure: BSA, ATP, NADH, PEP, and DTT solutions were thawed at room temperature, then transferred to ice. Pellet-frozen myofibrils were transferred with approximately twice the required volume into a sufficiently large tube and capped. Myofibrils were thawed by rolling in a water bath for approximately 15 min at room temperature and cooled on ice. Buffers A and B were prepared by adjusting volumes as necessary for required number of wells and stored on ice. 0.5 μL of the compounds to be assayed were added into wells. 25 μL of Buffer A was dispensed into the wells, followed by 25 μL of Buffer B. The wells were measured for absorbance at 340 nm, using a kinetic protocol in which the wells are read every 1.5-2 min for 75 min. Assay data analysis was performed using a python script that filtered the raw data to retain those points falling between a starting and ending time and between a maximum and minimum absorbance, then used the filtered time-domain 340 nm absorbance data in each well to calculate a slope via linear regression analysis in units of mAU/min. Compound slopes were normalized between 100% and 0% activity, where 100% represented the slope of wells containing only compound vehicle, and fit to a 4-parameter logistic model. In addition to the fit parameters, the EC25% is calculated, relative to the 100% normalized value. In the case of inhibitors, EC50% is also calculated, if available. Fit parameters, calculated effective concentrations, filtered raw data, and calculated slopes were exported, in addition to compound-specific graphs of normalized ATPase activity versus concentration in μM.
Cardiac Myofibril Isolation:
Myofibrils from porcine cardiac muscle was isolated from the left ventricle of Yucatan minipigs. Myofibrils were prepared using a method based upon those described in Herrmann et al. (1993) and summarized here. Minced tissue was homogenized for 50 sec with a Polytron homogenizer into 10 volumes (relative to weight in grams) of Isolation Buffer A (75 mM KCl, 10 mM Imidazole, 2 mM MgCl2, 2 mM EGTA, 1 mM NaN3, 1% v/v Triton X-100) supplemented with 4 mM Phosphocreatine, 1 mM ATP, 50 mM BDM, 1 mM DTT, 1 mM Benzamide HCl, 0.1 mM PMSF, 10 μM leupeptin, 5 μM pepstatin, and 10 mM EDTA. The myofibrils were recovered by centrifugation (Beckman Allegra 6R, 1200 g, 15 min) and resuspended in 10 volumes Isolation Buffer B (Buffer A above without supplemental reagents). The myofibrils were further homogenized described above and recovered by centrifugation for 7 mins. Cellular membranes and debris were removed by 3 washes in Isolation Buffer B, centrifuging each as before. […]

[2] = tested on: Porcine Atria myofibrils; assay: Myofibril ATPase assay (PK/LDH NADH-coupled), atria myofibrils
Method: as §5

[3] = tested on: Rabbit Skeletal myofibrils (rabbit psoas muscle); assay: Myofibril ATPase assay (PK/LDH NADH-coupled), skeletal myofibrils
Method: as §1, §2, §3, §4, §5
Skeletal Myofibril Isolation:
Myofibrils from various animals and tissue types were acquired from a variety of sources: rabbit psoas muscle was purchased from Pel-Freez Biologicals (Rogers, AR) and porcine cardiac muscle was purchased from Exemplar Genetics. All myofibrils were prepared using a method based upon those described in Herrmann et al. (1993) and summarized here. Minced tissue was homogenized for 50 sec with a Polytron homogenizer into 10 volumes (relative to weight in grams) of Isolation Buffer A (50 mM Tris, pH 8.0, 0.1 M potassium acetate, 5 mM KCl, 2 mM DTT, 5 mM EDTA, 0.5% v/v Triton X-100) supplemented with 0.1 mM PMSF, 10 μM leupeptin, 5 μM pepstatin, and 0.5 mM sodium azide. The myofibrils were recovered by centrifugation (Beckman Allegra 6R, 1200 g, 10 min) and resuspended in 10 volumes Isolation Buffer B (Buffer A above without protease inhibitors or sodium azide). The myofibrils were further homogenized as before and recovered by centrifugation. […]

[4] = molecular target: T2, myosin+removed RLC (Sus scrofa, UniProt P79293); assay: NADH-coupled actin-activated ATPase assay, myosin + removed RLC; settings: 2 μM myosin, rabbit skeletal actin, 25° C., 1% DMSO
T2 construct: Full-length myosin was resuspended to 1 mg/mL
Method: (§6) Full-length myosin was resuspended to 1 mg/mL in a buffer containing 500 mM KCl, 10 mM KPi, 15 mM CDTA, pH 8.5. Triton-X was then added to a final concentration of […], and the suspension was agitated for 15 minutes at room temperature to selectively remove the regulatory light chain (RLC). RLC-removed myosin was then precipitated and collected and resuspended in a buffer containing 400 mM KCl, 50 mM Mops, pH 7, 2 mM MgCl2, and 1 mM DTT. Recombinantly expressed and purified human ventricle RLC was added in a 3-fold molar excess to myosin and incubated on ice for 2 hours to allow for reassociation of the RLC onto myosin. […]
(§7) Myosin was resuspended in buffer A (f.c.=12 mM PIPES, pH 6.8, 30 mM KCl, 2 mM MgCl2, 1 mM DTT, 0.1 mg/mL BSA, 0.01% (v/v) Antifoam 204, and 0.6% (v/v) PK/LDH (final reaction contains ≥3.6 U/mL PK and >5.4 U/mL LDH)) at final concentrations of 1 μM for myosin+native RLC and 2 μM for myosin+removed RLC and myosin+human ventricle RLC. […] Dose-dependent compound effects were assessed by adding the compounds at varying concentrations between 100 μM and 2 nM, all with a constant final DMSO concentration of 1% v/v. The reactions were run at a constant temperature of 25° C. in the plate reader to monitor the change in A340 over time. Measurements were taken every 90 sec for 75 min to generate raw time-domain absorbance data, which was processed to normalized reaction rates. […]

[5] = molecular target: T3, myosin+native RLC (Sus scrofa, UniProt P79293); assay: NADH-coupled actin-activated ATPase assay, myosin + native RLC; settings: 1 μM myosin, rabbit skeletal actin, 25° C., 1% DMSO
T3 construct: Full-length myosin was resuspended to 1 mg/mL
Method: as §6, §7

[6] = molecular target: T4, myosin+human ventricle RLC (Sus scrofa, UniProt P79293); assay: NADH-coupled actin-activated ATPase assay, myosin + human ventricle RLC; settings: 2 μM myosin, rabbit skeletal actin, 25° C., 1% DMSO
T4 construct: Full-length myosin was resuspended to 1 mg/mL
Method: as §6, §7

T1 sequence (P79293 whole entry): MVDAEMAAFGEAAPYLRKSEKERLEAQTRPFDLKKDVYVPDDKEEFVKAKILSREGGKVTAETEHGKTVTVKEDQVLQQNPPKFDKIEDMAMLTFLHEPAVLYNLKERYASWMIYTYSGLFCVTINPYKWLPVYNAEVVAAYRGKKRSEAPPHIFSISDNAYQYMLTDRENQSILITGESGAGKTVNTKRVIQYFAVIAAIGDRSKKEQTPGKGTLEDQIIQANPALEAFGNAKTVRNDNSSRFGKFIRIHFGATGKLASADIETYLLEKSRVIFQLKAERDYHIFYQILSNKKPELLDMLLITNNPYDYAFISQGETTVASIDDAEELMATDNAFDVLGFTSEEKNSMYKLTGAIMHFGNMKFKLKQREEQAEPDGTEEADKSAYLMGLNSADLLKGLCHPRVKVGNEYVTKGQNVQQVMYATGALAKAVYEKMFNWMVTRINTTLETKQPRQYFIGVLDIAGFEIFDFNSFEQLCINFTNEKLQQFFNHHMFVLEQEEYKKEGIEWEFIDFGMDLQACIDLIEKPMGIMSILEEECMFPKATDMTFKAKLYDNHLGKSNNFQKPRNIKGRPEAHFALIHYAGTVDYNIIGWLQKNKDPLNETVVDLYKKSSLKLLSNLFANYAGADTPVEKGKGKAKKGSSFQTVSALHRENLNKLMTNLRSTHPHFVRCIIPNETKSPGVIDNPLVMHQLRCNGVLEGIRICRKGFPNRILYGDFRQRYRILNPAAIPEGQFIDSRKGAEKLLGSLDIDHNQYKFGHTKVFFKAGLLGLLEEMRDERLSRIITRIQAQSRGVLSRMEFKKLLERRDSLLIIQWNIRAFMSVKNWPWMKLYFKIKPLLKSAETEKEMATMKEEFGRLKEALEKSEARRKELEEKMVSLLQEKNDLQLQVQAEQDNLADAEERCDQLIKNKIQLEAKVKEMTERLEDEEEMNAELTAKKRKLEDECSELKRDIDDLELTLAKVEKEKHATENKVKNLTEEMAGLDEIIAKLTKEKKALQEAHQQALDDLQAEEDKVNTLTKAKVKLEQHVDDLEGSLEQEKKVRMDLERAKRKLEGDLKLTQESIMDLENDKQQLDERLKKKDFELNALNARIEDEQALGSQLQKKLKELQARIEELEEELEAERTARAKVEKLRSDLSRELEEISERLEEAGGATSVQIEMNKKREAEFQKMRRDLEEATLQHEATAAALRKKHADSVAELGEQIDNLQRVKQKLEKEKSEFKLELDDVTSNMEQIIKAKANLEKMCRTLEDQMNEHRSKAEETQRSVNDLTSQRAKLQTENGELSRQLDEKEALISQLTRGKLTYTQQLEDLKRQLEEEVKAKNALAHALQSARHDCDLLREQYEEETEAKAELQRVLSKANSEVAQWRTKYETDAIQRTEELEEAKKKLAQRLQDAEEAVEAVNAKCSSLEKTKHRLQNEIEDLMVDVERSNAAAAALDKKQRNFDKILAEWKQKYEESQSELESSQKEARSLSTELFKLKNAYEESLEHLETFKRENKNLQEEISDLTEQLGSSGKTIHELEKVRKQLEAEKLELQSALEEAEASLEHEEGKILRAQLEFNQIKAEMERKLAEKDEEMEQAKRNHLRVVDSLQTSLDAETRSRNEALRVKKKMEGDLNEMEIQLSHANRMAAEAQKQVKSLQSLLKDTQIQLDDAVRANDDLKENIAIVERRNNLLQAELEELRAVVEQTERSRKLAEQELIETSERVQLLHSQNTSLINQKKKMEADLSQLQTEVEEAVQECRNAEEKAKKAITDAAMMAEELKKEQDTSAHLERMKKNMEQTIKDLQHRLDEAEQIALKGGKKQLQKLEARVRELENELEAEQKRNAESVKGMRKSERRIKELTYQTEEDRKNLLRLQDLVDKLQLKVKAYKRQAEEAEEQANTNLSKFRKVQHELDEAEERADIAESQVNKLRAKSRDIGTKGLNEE
T3 sequence (P79293 whole entry): as above
T2 sequence (P79293 whole entry): as above
T4 sequence (P79293 whole entry): as above

| SMILES | Porcine Ventricle IC25 ([1]; Table 8) [nM] | Porcine Atria IC25 ([2]; Table 8) [nM] | Rabbit Psoas IC25 ([3]; Table 8) [nM] | Potency, Full-length myosin + RLC removed [4] [nM] | Potency, Full-length myosin + native porcine ventricle RLC [5] [nM] | Potency, Full-length myosin + exchanged human ventricle RLC [6] [nM] | Porcine Ventricle IC25 ([1]; Table 7) [nM] | Porcine Atria IC25 ([2]; Table 7) [nM] | Rabbit Psoas IC25 ([3]; Table 7) [nM] |
| --- | --- | --- | --- | --- | --- | --- | --- | --- | --- |
| N#Cc1cc(F)c2c(c1)OC[C@H]2NC(=O)CN1Cc2c(ccc(F)c2F)NC1=O [Compound B123] | 47 | 40 | 11.5 | – | – | – | – | – | – |
| C[C@H](NC(=O)CN1C(=O)Nc2ccc(F)cc2C1O)c1ccc(C#N)cc1F (stereo partly drawn) [Compound B356] | 140 | 100 | 80 | – | – | – | – | – | – |
| C[C@@H](NC(=O)CN1C(=O)Nc2ccc(F)c(F)c2C1O)c1ncc(C#N)cc1F (stereo partly drawn) [Compound B327] | 1380 | 190 | 1980 | >100000 | 5970 | 11630 | – | – | – |
| N#Cc1ccc2c(c1F)CN(CC(=O)N[C@@H]1COc3cc(F)cc(F)c31)C(=O)N2 [Compound B133] | 1940 | 70 | 211.6 | – | – | – | – | – | – |
| C[C@@H](NC(=O)CN1C(=O)Nc2ccc(F)c(F)c2[C@H]1O)c1ncc(C#N)cc1F [Compound B291] | 1850 | 60 | 1690 | – | – | – | – | – | – |
| C[C@@H](NC(=O)CN1C(=O)Nc2ccc(F)c(F)c2[C@@H]1O)c1ncc(C#N)cc1F [Compound B290] | 5210 | 250 | 4360 | – | – | – | – | – | – |
| C[C@H](NC(=O)CN1Cc2c(ccc(F)c2F)NC1=O)c1ncc(C#N)s1 [Compound B281] | 150 | 60 | 30 | – | – | – | – | – | – |
| C[C@H](NC(=O)CN1C(=O)Nc2ccncc2C12CC2)c1ccc(F)cc1F [Compound N9, N-[(1S)-1-(2,4-Difluorophenyl)ethyl]-2-{2′-oxo-1′H-spiro[cyclopropane-1,4′-pyrido[4,3-d]pyrimidin]-3′-yl}acetamide] | – | – | – | – | – | – | 3006 | 350 | 194.1 |
| N#Cc1ccc2c(c1F)CN(CC(=O)N[C@H]1COc3cc(F)cc(F)c31)C(=O)N2 [Compound B134] | 95460 | 4470 | 1791 | – | – | – | – | – | – |
| C[C@@H](NC(=O)CN1Cc2c(ccc(F)c2C#N)NC1=O)c1ncc(C#N)cc1F [Compound B127] | 96350 | 250 | 245.5 | – | – | – | – | – | – |
| C[C@H](NC(=O)CN1Cc2c(Cl)cncc2NC1=O)c1ncc(F)cc1F [Compound N55] | – | – | – | – | – | – | 100000 | 4730 | 7296 |
| N#Cc1cc(F)c2c(c1)OC[C@H]2NC(=O)CN1Cc2c(ccc(F)c2F)NC1=O [Compound B119] | 7599 | 550 | 52.1 | – | – | – | – | – | – |
| N#Cc1c(F)ccc2c1CN(CC(=O)N[C@H](CO)c1ccc(F)cc1F)C(=O)N2 [Compound B151] | 100000 | 100000 | 14210 | – | – | – | – | – | – |
| C[C@H](NC(=O)CN1Cc2c(ccc(F)c2C#N)NC1=O)c1ncc(C#N)cc1F [Compound B128] | 105.6 | 100 | 17.98 | – | – | – | – | – | – |
| N#Cc1cc(F)c2c(c1)OC[C@@H]2NC(=O)CN1Cc2c(ccc(F)c2F)NC1=O [Compound B120] | 82.6 | 60 | 13.7 | – | – | – | – | – | – |
| C[C@H](NC(=O)CN1Cc2c(ccnc2OC(F)(F)F)NC1=O)c1ccc(F)cc1F [Compound N102] | – | – | – | – | – | – | 2017 | 210 | 177.1 |
